# Experimental data from the supplement of paper PMC8728848.
# This is one part of the list.
# B1: LBL-152 (Laetiporus bicolor), B0D650 (protein)
# chain: MSNEYNPPLGIAFRLCGLASDRVLFSRVSPSPEVFHHPKSEVYPDQWFVAIPGSGQNAGCYAIKSKNTGKVLFSRMSPDPRVGHIDGDGKYPDNWFKFEAGSGKYAGYFRLRAVASDTVLVSRTSTGTDTQVINYPATSAKYDDQYFTILFDHHHHHH
# Columns and labels:
# Assay in all cases: glycan array binding signal (z-score within array); higher = stronger binding
# Conditions in all cases: glycan notation: IUPAC condensed, linker removed
# [1] = molecular target: GlcNAc(b1-3)Gal(b1-3)GalNAc
# Summary of the method: (§1)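 Columns mapping to the same glycan were averaged after glycan names were converted to IUPAC-condensed notation. The data come from 3228 arrays in the Consortium for Functional Glycomics database, limited to those with an available protein sequence. Binding is reported as a within-array Z-score averaged across arrays of one protein sequence and across linkers.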
# GlcNAc(b1-3)Gal(b1-4)Glc = molecular target: GlcNAc(b1-3)Gal(b1-4)Glc
# Summary of the method: as §1
# [2] = molecular target: GlcNAc(b1-3)Gal(b1-4)GlcNAc
# Summary of the method: as §1
# [3] = molecular target: GlcNAc(b1-3)Gal(b1-4)GlcNAc(b1-2)Man(a1-3)[GlcNAc(b1-3)Gal(b1-4)GlcNAc(b1-2)Man(a1-6)]Man(b1-4)GlcNAc(b1-4)GlcNAc
# Summary of the method: as §1
# [4] = molecular target: GlcNAc(b1-3)Gal(b1-4)GlcNAc(b1-2)Man(a1-3)[GlcNAc(b1-3)Gal(b1-4)GlcNAc(b1-2)Man(a1-6)]Man(b1-4)GlcNAc(b1-4)[Fuc(a1-6)]GlcNAc
# Summary of the method: as §1
# [5] = molecular target: GlcNAc(b1-3)Gal(b1-4)GlcNAc(b1-2)[GlcNAc(b1-3)Gal(b1-4)GlcNAc(b1-6)]Man(a1-6)[GlcNAc(b1-3)Gal(b1-4)GlcNAc(b1-2)Man(a1-3)]Man(b1-4)GlcNAc(b1-4)GlcNAc
# Summary of the method: as §1
# [6] = molecular target: GlcNAc(b1-3)Gal(b1-4)GlcNAc(b1-3)Gal(b1-4)GlcNAc
# Summary of the method: as §1
# [7] = molecular target: GlcNAc(b1-3)Gal(b1-4)GlcNAc(b1-3)Gal(b1-4)GlcNAc(b1-2)Man(a1-3)[GlcNAc(b1-3)Gal(b1-4)GlcNAc(b1-3)Gal(b1-4)GlcNAc(b1-2)Man(a1-6)]Man(b1-4)GlcNAc(b1-4)GlcNAc
# Summary of the method: as §1
# [8] = molecular target: GlcNAc(b1-3)Gal(b1-4)GlcNAc(b1-3)Gal(b1-4)GlcNAc(b1-2)Man(a1-3)[GlcNAc(b1-3)Gal(b1-4)GlcNAc(b1-3)Gal(b1-4)GlcNAc(b1-2)Man(a1-6)]Man(b1-4)GlcNAc(b1-4)[Fuc(a1-6)]GlcNAc
# Summary of the method: as §1
# [9] = molecular target: GlcNAc(b1-3)Gal(b1-4)GlcNAc(b1-3)Gal(b1-4)GlcNAc(b1-2)[GlcNAc(b1-3)Gal(b1-4)GlcNAc(b1-3)Gal(b1-4)GlcNAc(b1-6)]Man(a1-6)[GlcNAc(b1-3)Gal(b1-4)GlcNAc(b1-3)Gal(b1-4)GlcNAc(b1-2)Man(a1-3)]Man(b1-4)GlcNAc(b1-4)[Fuc(a1-6)]GlcNAc
# Summary of the method: as §1
# [10] = molecular target: GlcNAc(b1-3)Gal(b1-4)GlcNAc(b1-3)Gal(b1-4)GlcNAc(b1-3)Gal(b1-4)GlcNAc(b1-2)Man(a1-3)[GlcNAc(b1-3)Gal(b1-4)GlcNAc(b1-3)Gal(b1-4)GlcNAc(b1-3)Gal(b1-4)GlcNAc(b1-2)Man(a1-6)]Man(b1-4)GlcNAc(b1-4)GlcNAc
# Summary of the method: as §1
# [11] = molecular target: GlcNAc(b1-3)Gal(b1-4)GlcNAc(b1-3)Gal(b1-4)GlcNAc(b1-3)Gal(b1-4)GlcNAc(b1-2)Man(a1-3)[GlcNAc(b1-3)Gal(b1-4)GlcNAc(b1-3)Gal(b1-4)GlcNAc(b1-3)Gal(b1-4)GlcNAc(b1-2)Man(a1-6)]Man(b1-4)GlcNAc(b1-4)[Fuc(a1-6)]GlcNAc
# Summary of the method: as §1
# [12] = molecular target: GlcNAc(b1-3)Gal(b1-4)GlcNAc(b1-3)Gal(b1-4)GlcNAc(b1-3)Gal(b1-4)GlcNAc(b1-2)[GlcNAc(b1-3)Gal(b1-4)GlcNAc(b1-3)Gal(b1-4)GlcNAc(b1-3)Gal(b1-4)GlcNAc(b1-6)]Man(a1-6)[GlcNAc(b1-3)Gal(b1-4)GlcNAc(b1-3)Gal(b1-4)GlcNAc(b1-3)Gal(b1-4)GlcNAc(b1-2)Man(a1-3)]Man(b1-4)GlcNAc(b1-4)[Fuc(a1-6)]GlcNAc
# Summary of the method: as §1
# [13] = molecular target: GlcNAc(b1-3)Gal(b1-4)GlcNAc(b1-3)Gal(b1-4)GlcNAc(b1-3)Gal(b1-4)GlcNAc(b1-3)Gal(b1-4)GlcNAc(b1-2)Man(a1-3)[GlcNAc(b1-3)Gal(b1-4)GlcNAc(b1-3)Gal(b1-4)GlcNAc(b1-3)Gal(b1-4)GlcNAc(b1-3)Gal(b1-4)GlcNAc(b1-2)Man(a1-6)]Man(b1-4)GlcNAc(b1-4)GlcNAc
# Summary of the method: as §1
# [14] = molecular target: GlcNAc(b1-3)Gal(b1-4)GlcNAc(b1-3)Gal(b1-4)GlcNAc(b1-3)Gal(b1-4)GlcNAc(b1-3)Gal(b1-4)GlcNAc(b1-2)Man(a1-3)[GlcNAc(b1-3)Gal(b1-4)GlcNAc(b1-3)Gal(b1-4)GlcNAc(b1-3)Gal(b1-4)GlcNAc(b1-3)Gal(b1-4)GlcNAc(b1-2)Man(a1-6)]Man(b1-4)GlcNAc(b1-4)[Fuc(a1-6)]GlcNAc
# Summary of the method: as §1
# [15] = molecular target: GlcNAc(b1-3)Gal(b1-4)GlcNAc(b1-3)Gal(b1-4)GlcNAc(b1-3)Gal(b1-4)GlcNAc(b1-3)Gal(b1-4)GlcNAc(b1-2)[GlcNAc(b1-3)Gal(b1-4)GlcNAc(b1-3)Gal(b1-4)GlcNAc(b1-3)Gal(b1-4)GlcNAc(b1-3)Gal(b1-4)GlcNAc(b1-6)]Man(a1-6)[GlcNAc(b1-3)Gal(b1-4)GlcNAc(b1-3)Gal(b1-4)GlcNAc(b1-3)Gal(b1-4)GlcNAc(b1-3)Gal(b1-4)GlcNAc(b1-2)Man(a1-3)]Man(b1-4)GlcNAc(b1-4)[Fuc(a1-6)]GlcNAc
# Summary of the method: as §1
# [16] = molecular target: GlcNAc(b1-3)Gal(b1-4)GlcNAc(b1-3)Gal(b1-4)GlcNAc(b1-3)GalNAc
# Summary of the method: as §1
# [17] = molecular target: GlcNAc(b1-3)Gal(b1-4)GlcNAc(b1-3)GalNAc
# Summary of the method: as §1
# [18] = molecular target: GlcNAc(b1-3)Gal(b1-4)GlcNAc(b1-3)[GlcNAc(b1-3)Gal(b1-4)GlcNAc(b1-3)]GalNAc
# Summary of the method: as §1
# [19] = molecular target: GlcNAc(b1-3)Gal(b1-4)GlcNAc(b1-6)[Gal(b1-3)]GalNAc
# Summary of the method: as §1
# [20] = molecular target: GlcNAc(b1-3)Gal(b1-4)GlcNAc(b1-6)[GlcNAc(b1-3)Gal(b1-3)]GalNAc
# Summary of the method: as §1
# [21] = molecular target: GlcNAc(b1-3)Gal(b1-4)GlcNAc(b1-6)[GlcNAc(b1-3)]Gal(b1-4)GlcNAc
# Summary of the method: as §1
# GlcNAc(b1-3)GalNAc = molecular target: GlcNAc(b1-3)GalNAc
# Summary of the method: as §1
# GlcNAc(b1-3)Man = molecular target: GlcNAc(b1-3)Man
# Summary of the method: as §1
# [22] = molecular target: GlcNAc(b1-3)[GlcNAc(b1-4)][GlcNAc(b1-6)]GlcNAc
# Summary of the method: as §1
# [23] = molecular target: GlcNAc(b1-3)[GlcNAc(b1-6)]Gal(b1-4)GlcNAc
# Summary of the method: as §1
# [24] = molecular target: GlcNAc(b1-3)[GlcNAc(b1-6)]GalNAc
# Summary of the method: as §1
# [25] = molecular target: GlcNAc(b1-4)Gal(b1-4)GlcNAc
# Summary of the method: as §1
# GlcNAc(b1-4)GlcNAc = molecular target: GlcNAc(b1-4)GlcNAc
# Summary of the method: as §1
# [26] = molecular target: GlcNAc(b1-4)GlcNAc(b1-4)GlcNAc
# Summary of the method: as §1
# [27] = molecular target: GlcNAc(b1-4)GlcNAc(b1-4)GlcNAc(b1-4)GlcNAc(b1-4)GlcNAc
# Summary of the method: as §1
# [28] = molecular target: GlcNAc(b1-4)GlcNAc(b1-4)GlcNAc(b1-4)GlcNAc(b1-4)GlcNAc(b1-4)GlcNAc
# Summary of the method: as §1
# [29] = molecular target: GlcNAc(b1-4)[GlcNAc(b1-6)]GalNAc
# Summary of the method: as §1
# [30] = molecular target: GlcNAc(b1-6)Gal(b1-4)GlcNAc
# Summary of the method: as §1
# GlcNAc(b1-6)GalNAc = molecular target: GlcNAc(b1-6)GalNAc
# Summary of the method: as §1
# [31] = molecular target: GlcNAc6S(b1-3)Gal(b1-4)GlcNAc
# Summary of the method: as §1
# Kdn(a2-3)Gal(b1-3)GalNAc = molecular target: Kdn(a2-3)Gal(b1-3)GalNAc
# Summary of the method: as §1
# Kdn(a2-3)Gal(b1-3)GlcNAc = molecular target: Kdn(a2-3)Gal(b1-3)GlcNAc
# Summary of the method: as §1
# Kdn(a2-3)Gal(b1-4)Glc = molecular target: Kdn(a2-3)Gal(b1-4)Glc
# Summary of the method: as §1
# Kdn(a2-3)Gal(b1-4)GlcNAc = molecular target: Kdn(a2-3)Gal(b1-4)GlcNAc
# Summary of the method: as §1
# [32] = molecular target: Kdn(a2-3)Gal(b1-4)[Fuc(a1-3)]GlcNAc
# Summary of the method: as §1
# Kdn(a2-6)Gal(b1-4)GlcNAc = molecular target: Kdn(a2-6)Gal(b1-4)GlcNAc
# Summary of the method: as §1
# [33] = molecular target: Man(a1-2)Man(a1-2)Man(a1-3)Man
# Summary of the method: as §1
# [34] = molecular target: Man(a1-2)Man(a1-2)Man(a1-6)[Man(a1-3)]Man
# Summary of the method: as §1
# Man(a1-2)Man(a1-3)Man = molecular target: Man(a1-2)Man(a1-3)Man
# Summary of the method: as §1
binder,measurement,setting,value
B1,glycan array binding signal (z-score),[1],-0.149
same,glycan array binding signal (z-score),GlcNAc(b1-3)Gal(b1-4)Glc,-0.156
same,glycan array binding signal (z-score),[2],-0.157
same,glycan array binding signal (z-score),[3],-0.12
same,glycan array binding signal (z-score),[4],-0.107
same,glycan array binding signal (z-score),[5],-0.133
same,glycan array binding signal (z-score),[6],-0.15
same,glycan array binding signal (z-score),[7],0.023
same,glycan array binding signal (z-score),[8],0.071
same,glycan array binding signal (z-score),[9],0.132
same,glycan array binding signal (z-score),[10],0.2
same,glycan array binding signal (z-score),[11],1.18
same,glycan array binding signal (z-score),[12],0.355
same,glycan array binding signal (z-score),[13],3.47
same,glycan array binding signal (z-score),[14],4.51
same,glycan array binding signal (z-score),[15],2.01
same,glycan array binding signal (z-score),[16],-0.155
same,glycan array binding signal (z-score),[17],-0.152
same,glycan array binding signal (z-score),[18],-0.15
same,glycan array binding signal (z-score),[19],-0.153
same,glycan array binding signal (z-score),[20],-0.148
same,glycan array binding signal (z-score),[21],-0.155
same,glycan array binding signal (z-score),GlcNAc(b1-3)GalNAc,-0.15
same,glycan array binding signal (z-score),GlcNAc(b1-3)Man,-0.156
same,glycan array binding signal (z-score),[22],-0.153
same,glycan array binding signal (z-score),[23],-0.145
same,glycan array binding signal (z-score),[24],-0.154
same,glycan array binding signal (z-score),[25],-0.153
same,glycan array binding signal (z-score),GlcNAc(b1-4)GlcNAc,-0.157
same,glycan array binding signal (z-score),[26],-0.157
same,glycan array binding signal (z-score),[27],-0.163
same,glycan array binding signal (z-score),[28],-0.152
same,glycan array binding signal (z-score),[29],-0.141
same,glycan array binding signal (z-score),[30],-0.155
same,glycan array binding signal (z-score),GlcNAc(b1-6)GalNAc,-0.155
same,glycan array binding signal (z-score),[31],-0.157
same,glycan array binding signal (z-score),Kdn(a2-3)Gal(b1-3)GalNAc,-0.157
same,glycan array binding signal (z-score),Kdn(a2-3)Gal(b1-3)GlcNAc,-0.16
same,glycan array binding signal (z-score),Kdn(a2-3)Gal(b1-4)Glc,-0.145
same,glycan array binding signal (z-score),Kdn(a2-3)Gal(b1-4)GlcNAc,-0.153
same,glycan array binding signal (z-score),[32],-0.161
same,glycan array binding signal (z-score),Kdn(a2-6)Gal(b1-4)GlcNAc,-0.153
same,glycan array binding signal (z-score),[33],-0.158
same,glycan array binding signal (z-score),[34],-0.157
same,glycan array binding signal (z-score),Man(a1-2)Man(a1-3)Man,-0.152
